Laboratory results: patent EP1506972A1 (Genentech Inc., dated 2005)

T1: human IGFBP-1 (human, UniProt P08833 26-259)
T1 construct: Secreted recombinant protein
T1 sequence (looked up): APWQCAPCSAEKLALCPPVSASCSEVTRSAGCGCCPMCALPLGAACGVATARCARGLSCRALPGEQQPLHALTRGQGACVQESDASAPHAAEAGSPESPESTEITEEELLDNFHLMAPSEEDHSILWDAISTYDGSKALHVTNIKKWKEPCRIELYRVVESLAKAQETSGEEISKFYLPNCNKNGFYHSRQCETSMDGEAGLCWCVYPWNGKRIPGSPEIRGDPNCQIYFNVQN


Tests used:
[1] = molecular target: T2, recombinant human IGFBP-3 (human, UniProt P17936); experiment: BIAcore kinetics, IGF variant immobilised, IGFBP-3 injected
T2 construct: Secreted recombinant protein

[2] = molecular target: T1, human IGFBP-1; experiment: BIAcore
[3] = molecular target: T2, recombinant human IGFBP-3; experiment: BIAcore
T2 sequence (P17936 28-291 limits assumed): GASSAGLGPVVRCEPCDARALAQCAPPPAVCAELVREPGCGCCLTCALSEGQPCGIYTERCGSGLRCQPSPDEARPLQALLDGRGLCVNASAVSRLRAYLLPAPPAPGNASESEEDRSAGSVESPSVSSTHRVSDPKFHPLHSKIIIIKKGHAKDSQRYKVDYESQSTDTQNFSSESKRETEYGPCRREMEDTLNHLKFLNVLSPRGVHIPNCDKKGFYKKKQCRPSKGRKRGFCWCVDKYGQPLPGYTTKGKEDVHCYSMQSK

[4] = molecular target: IGF type I receptor (UniProt P08069 31-1367, limits assumed); experiment: cell-based or functional assay
Sequence of UniProt P08069 (P08069 31-1367 limits assumed): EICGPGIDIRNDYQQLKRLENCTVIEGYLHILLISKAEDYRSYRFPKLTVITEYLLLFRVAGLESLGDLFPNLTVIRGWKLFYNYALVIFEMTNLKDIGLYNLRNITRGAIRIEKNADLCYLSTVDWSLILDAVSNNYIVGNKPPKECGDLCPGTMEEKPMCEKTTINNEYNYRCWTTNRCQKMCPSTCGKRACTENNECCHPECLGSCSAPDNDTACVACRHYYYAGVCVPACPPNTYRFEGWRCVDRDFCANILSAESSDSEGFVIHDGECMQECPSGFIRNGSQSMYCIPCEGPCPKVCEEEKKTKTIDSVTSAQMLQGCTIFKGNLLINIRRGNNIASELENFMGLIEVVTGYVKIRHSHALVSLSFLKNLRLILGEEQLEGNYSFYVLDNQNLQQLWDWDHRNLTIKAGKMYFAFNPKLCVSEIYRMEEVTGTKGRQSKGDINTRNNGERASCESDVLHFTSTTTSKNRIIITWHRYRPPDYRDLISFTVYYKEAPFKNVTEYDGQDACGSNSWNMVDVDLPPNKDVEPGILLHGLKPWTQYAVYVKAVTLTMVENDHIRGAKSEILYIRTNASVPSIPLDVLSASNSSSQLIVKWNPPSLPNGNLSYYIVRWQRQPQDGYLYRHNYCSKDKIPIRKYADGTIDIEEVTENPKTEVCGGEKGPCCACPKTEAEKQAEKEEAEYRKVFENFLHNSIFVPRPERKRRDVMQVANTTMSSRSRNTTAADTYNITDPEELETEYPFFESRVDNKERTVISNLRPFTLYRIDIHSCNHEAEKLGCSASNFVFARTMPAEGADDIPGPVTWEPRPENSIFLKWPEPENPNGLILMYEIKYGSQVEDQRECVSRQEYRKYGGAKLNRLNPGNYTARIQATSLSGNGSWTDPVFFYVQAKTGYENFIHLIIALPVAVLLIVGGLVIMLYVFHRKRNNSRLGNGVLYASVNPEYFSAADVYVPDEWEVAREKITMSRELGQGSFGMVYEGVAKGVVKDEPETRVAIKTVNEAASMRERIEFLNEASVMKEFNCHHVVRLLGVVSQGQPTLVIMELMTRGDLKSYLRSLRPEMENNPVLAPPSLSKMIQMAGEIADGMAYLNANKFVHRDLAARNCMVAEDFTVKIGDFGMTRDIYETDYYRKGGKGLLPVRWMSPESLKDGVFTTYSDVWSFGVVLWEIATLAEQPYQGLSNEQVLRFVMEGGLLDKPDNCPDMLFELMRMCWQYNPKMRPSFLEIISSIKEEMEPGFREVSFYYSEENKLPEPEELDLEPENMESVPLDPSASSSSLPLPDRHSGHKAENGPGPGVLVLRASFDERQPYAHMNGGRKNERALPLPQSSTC

| koff [1] | kon [1] | KD(mutant)/KD(IGF-I) [2] | KD(mutant)/KD(IGF-I) [3] | KIRA (kinase receptor activation assay) EC50 [4] | Binder |
| --- | --- | --- | --- | --- | --- |
| 0.00133 s⁻¹ | 74000 M⁻¹ s⁻¹ | – | – | – | E3A/F49A IGF-I (soluble, purified double mutant) (ligand) not shown |
| – | – | 70 fold | 4.2 fold | 0.02 mg/L | F49A IGF-I (soluble, purified) (ligand, Made on the wild-type template pBKIGF2B-f1-ori; also called F49A IGF variant) not shown |
| – | – | – | 65.6 fold | – | F16A/F49A IGF-I (soluble double mutant) (ligand) not shown |
